Assay results as given in the supplement of paper PMC4967469.
A lower IC50 marks a more sensitive line; a fit beyond the top or the lowest dose is shown as a bound at that dose. AUC, from the same fit, is the share of area under the viability curve across the 256-fold dose range; the more sensitive the line, the further below 1. For part of these data: An inferred top dose comes from the curve model; the source does not state it. For part of these data: Where an entry number is given, a second screen of the drug exists; the two often differ.

What was measured:
Assay in all cases: Viability of human cancer cell lines after 72 h of drug (GDSC screen)
[1] = compound: Cn1cnc2c(F)c(Nc3ccc(Br)cc3Cl)c(C(=O)NOCCO)cc21 [AZD6244]; settings: screen: GDSC drug entry 1062
Method: (§1)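 Human cancer cell lines in 384-well plates, medium with 10% serum, drug for 72 h over a 256-fold dose range (nine 2-fold or five 4-fold steps up to the top dose). Adherent lines were fixed and stained with the nucleic acid dye Syto60, suspension lines read with resazurin; signal relative to control wells, capped at 0 and 100%. One two-parameter sigmoid per drug and line, fitted in a mixed model over all curves with the slope shared within a line.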

[2] = compound: CC(=O)c1c(C)c2cnc(Nc3ccc(N4CCNCC4)cn3)nc2n(C2CCCC2)c1=O [PD-0332991]
Method: as §1

[3] = compound: COc1cc2c(Nc3ccc(NC(=O)c4ccccc4)cc3)ncnc2cc1OCCCN1CCOCC1 [ZM-447439]; settings: top dose inferred
Method: as §1

| Cell Line | AUC [1] | IC50 [1] [µM] | AUC [2] | IC50 [2] [µM] | AUC [3] | IC50 [3] [µM] |
| --- | --- | --- | --- | --- | --- | --- |
| ATN-1 (T-cell lymphoblastic leukaemia, suspension, top dose 4 µM) | 0.806 | 1.87 | 0.855 | 2.85 | 0.691 | 0.825 |
| AU565 (breast, adherent, top dose 4 µM) | 0.984 | > 4 | 0.923 | > 4 | 0.947 | > 4 |
| AsPC-1 (pancreas, adherent, top dose 2 µM) | 0.592 | 0.267 | 0.564 | 0.21 | 0.927 | > 2 |
| BALL-1 (B-cell leukaemia, suspension, top dose 4 µM) | 0.997 | > 4 | 0.959 | > 4 | 0.997 | > 4 |
| BB30-HNC (head and neck, adherent, top dose 4 µM) | 0.921 | > 4 | 0.536 | 0.313 | 0.904 | > 4 |
| BB49-HNC (head and neck, adherent, top dose 4 µM) | 0.784 | 2.48 | 0.819 | 3.61 | 0.89 | > 4 |
| BC-1 (B-cell lymphoma, suspension, top dose 4 µM) | 0.982 | > 4 | 0.968 | > 4 | 0.987 | > 4 |
| BCPAP (thyroid, adherent, top dose 2 µM) | 0.871 | 1.58 | 0.832 | 1.12 | 0.95 | > 2 |
| BE2-M17 (neuroblastoma, adherent, top dose 4 µM) | 0.847 | 3.07 | 0.668 | 0.748 | 0.882 | > 4 |
| BE-13 (lymphoblastic leukaemia, suspension, top dose 4 µM) | 0.915 | > 4 | 0.555 | 0.349 | 0.706 | 0.911 |
| BFTC-905 (bladder, adherent, top dose 4 µM) | 0.843 | 2.28 | 0.739 | 1.07 | 0.832 | 2.07 |
| BHT-101 (thyroid, adherent, top dose 4 µM) | 0.394 | 0.127 | 0.476 | 0.215 | 0.824 | 2.48 |
| BHY (head and neck, adherent, top dose 2 µM) | 0.818 | 1.13 | 0.808 | 1.04 | 0.948 | > 2 |
| BICR10 (head and neck, adherent, top dose 4 µM) | 0.92 | > 4 | 0.807 | 2.45 | 0.938 | > 4 |
| BICR22 (head and neck, adherent, top dose 4 µM) | 0.966 | > 4 | 0.754 | 1.53 | 0.8 | 2.27 |
| BICR78 (head and neck, adherent, top dose 4 µM) | 0.939 | > 4 | 0.812 | 2.58 | 0.876 | > 4 |
| BL-41 (Burkitt lymphoma, suspension, top dose 4 µM) | 0.994 | > 4 | 0.887 | 2.65 | 0.793 | 1.37 |
| BPH-1 (prostate, adherent, top dose 2 µM) | 0.529 | 0.151 | 0.956 | > 2 | 0.912 | > 2 |
| BT-474 (breast, adherent, top dose 4 µM) | 0.984 | > 4 | 0.98 | > 4 | 0.981 | > 4 |
| BT-483 (breast, adherent, top dose 4 µM) | 0.941 | > 4 | 0.946 | > 4 | 0.967 | > 4 |
| BT-549 (breast, adherent, top dose 4 µM) | 0.968 | > 4 | 0.979 | > 4 | 0.943 | > 4 |
| BV-173 (chronic myeloid leukaemia, suspension, top dose 4 µM) | 0.949 | > 4 | 0.576 | 0.394 | 0.712 | 0.912 |

| Cell Line | AUC [1] | IC50 [1] [µM] | AUC [2] | IC50 [2] [µM] | AUC [3] | IC50 [3] [µM] |
| --- | --- | --- | --- | --- | --- | --- |
| Becker (glioma, adherent, top dose 4 µM) | 0.9 | > 4 | 0.742 | 1.36 | 0.925 | > 4 |
| BxPC-3 (pancreas, adherent, top dose 4 µM) | 0.857 | 3.9 | 0.846 | 3.48 | 0.921 | > 4 |
| C2BBe1 (large intestine, adherent, top dose 2 µM) | 0.561 | 0.188 | 0.863 | > 2 | 0.959 | > 2 |
| C3A (liver, adherent, top dose 4 µM) | 0.953 | > 4 | 0.953 | > 4 | 0.959 | > 4 |
| C32 (melanoma, adherent, top dose 4 µM) | 0.974 | > 4 | 0.814 | 2.37 | 0.952 | > 4 |
| C-4-I (cervix, adherent, top dose 4 µM) | 0.986 | > 4 | 0.982 | > 4 | 0.949 | > 4 |
| C-33-A (cervix, adherent, top dose 4 µM) | 0.986 | > 4 | 0.986 | > 4 | 0.955 | > 4 |
| CA46 (Burkitt lymphoma, suspension, top dose 4 µM) | 0.979 | > 4 | 0.985 | > 4 | 0.985 | > 4 |
| CADO-ES1 (Ewing sarcoma, suspension, top dose 4 µM) | 0.958 | > 4 | 0.95 | > 4 | 0.982 | > 4 |
| CAL-12T (non-small cell lung carcinoma, adherent, top dose 4 µM) | 0.867 | > 4 | 0.892 | > 4 | 0.952 | > 4 |
| CAL-27 (head and neck, adherent, top dose 4 µM) | 0.985 | > 4 | 0.827 | 2.5 | 0.927 | > 4 |
| CAL-29 (bladder, adherent, top dose 4 µM) | 0.736 | 1.25 | 0.626 | 0.572 | 0.812 | 2.36 |
| CAL-33 (head and neck, adherent, top dose 4 µM) | 0.946 | > 4 | 0.663 | 0.71 | 0.896 | > 4 |
| CAL-39 (cervix, adherent, top dose 4 µM) | 0.546 | 0.335 | 0.647 | 0.649 | 0.926 | > 4 |
| CAL-51 (breast, adherent, top dose 4 µM) | 0.983 | > 4 | 0.778 | 1.4 | 0.806 | 1.72 |
| CAL-54 (kidney, adherent, top dose 2 µM) | 0.781 | 0.959 | 0.843 | 1.72 | 0.943 | > 2 |
| CAL-62 (thyroid, adherent, top dose 4 µM) | 0.737 | 1.14 | 0.753 | 1.28 | 0.903 | > 4 |
| CAL-72 (osteosarcoma, adherent, top dose 4 µM) | 0.983 | > 4 | 0.948 | > 4 | 0.922 | > 4 |
| CAL-85-1 (breast, adherent, top dose 4 µM) | 0.807 | 2.8 | 0.817 | 3.08 | 0.933 | > 4 |
| CAL-120 (breast, adherent, top dose 4 µM) | 0.903 | > 4 | 0.868 | > 4 | 0.841 | > 4 |
| CAPAN-1 (pancreas, adherent, top dose 4 µM) | 0.981 | > 4 | 0.916 | > 4 | 0.98 | > 4 |
| CAS-1 (glioma, adherent, top dose 4 µM) | 0.978 | > 4 | 0.95 | > 4 | 0.957 | > 4 |

| Cell Line | AUC [1] | IC50 [1] [µM] | AUC [2] | IC50 [2] [µM] | AUC [3] | IC50 [3] [µM] |
| --- | --- | --- | --- | --- | --- | --- |
| CCF-STTG1 (glioma, adherent, top dose 4 µM) | 0.988 | > 4 | 0.844 | 2.9 | 0.931 | > 4 |
| CCK-81 (large intestine, adherent, top dose 4 µM) | 0.637 | 0.583 | 0.796 | 1.75 | 0.653 | 0.646 |
| CCRF-CEM (lymphoblastic leukaemia, suspension, top dose 4 µM) | 0.959 | > 4 | 0.395 | 0.136 | 0.619 | 0.502 |
| CESS (acute myeloid leukaemia, suspension, top dose 4 µM) | 0.991 | > 4 | 0.981 | > 4 | 0.991 | > 4 |
| CFPAC-1 (pancreas, adherent, top dose 4 µM) | 0.851 | 3.76 | 0.816 | 2.63 | 0.918 | > 4 |
| CGTH-W-1 (thyroid, adherent, top dose 4 µM) | 0.978 | > 4 | 0.627 | 0.557 | 0.801 | 1.94 |
| CHL-1 (melanoma, adherent, top dose 4 µM) | 0.813 | 2.01 | 0.866 | 3.22 | 0.85 | 2.78 |
| CHP-126 (neuroblastoma, suspension, top dose 4 µM) | 0.987 | > 4 | 0.761 | 1.45 | 0.939 | > 4 |
| CHP-134 (neuroblastoma, suspension, top dose 4 µM) | 0.932 | > 4 | 0.655 | 0.76 | 0.748 | 1.6 |
| CHP-212 (neuroblastoma, adherent, top dose 4 µM) | 0.83 | 2.26 | 0.499 | 0.248 | 0.709 | 0.92 |
| CHSA0108 (chondrosarcoma, adherent, top dose 4 µM) | 0.966 | > 4 | 0.777 | 1.86 | 0.943 | > 4 |
| CHSA8926 (chondrosarcoma, adherent, top dose 4 µM) | 0.973 | > 4 | 0.912 | > 4 | 0.972 | > 4 |
| CL-11 (large intestine, adherent, top dose 4 µM) | 0.935 | > 4 | 0.879 | > 4 | 0.971 | > 4 |
| CL-34 (large intestine, adherent, top dose 4 µM) | 0.974 | > 4 | 0.949 | > 4 | 0.871 | > 4 |
| CL-40 (large intestine, adherent, top dose 4 µM) | 0.974 | > 4 | 0.899 | > 4 | 0.966 | > 4 |
| CMK (acute myeloid leukaemia, suspension, top dose 4 µM) | 0.983 | > 4 | 0.952 | > 4 | 0.968 | > 4 |
| CML-T1 (chronic myeloid leukaemia, suspension, top dose 4 µM) | 0.988 | > 4 | 0.576 | 0.389 | 0.896 | 3.45 |
| COLO-205 (large intestine, suspension, top dose 4 µM) | 0.319 | 0.0785 | 0.927 | > 4 | 0.879 | > 4 |
| COLO-320-HSR (large intestine, suspension, top dose 4 µM) | 0.991 | > 4 | 0.912 | > 4 | 0.981 | > 4 |
| COLO-668 (small cell lung carcinoma, adherent, top dose 4 µM) | 0.951 | > 4 | 0.989 | > 4 | 0.941 | > 4 |
